The record followed here is PMC4336329 (PLoS ONE, 2015).

Out of some 310,000 compounds screened, about 14,000 (4.5%) showed an effect of 50% or more. The effect is printed as a negative number. The list shows a part of the results.
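Note: peak tail current of the secondary pulse compared with the same well before compound.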

human ether-à-go-go-related gene (hERG) potassium channel, sequence (Q12809 whole entry, looked up): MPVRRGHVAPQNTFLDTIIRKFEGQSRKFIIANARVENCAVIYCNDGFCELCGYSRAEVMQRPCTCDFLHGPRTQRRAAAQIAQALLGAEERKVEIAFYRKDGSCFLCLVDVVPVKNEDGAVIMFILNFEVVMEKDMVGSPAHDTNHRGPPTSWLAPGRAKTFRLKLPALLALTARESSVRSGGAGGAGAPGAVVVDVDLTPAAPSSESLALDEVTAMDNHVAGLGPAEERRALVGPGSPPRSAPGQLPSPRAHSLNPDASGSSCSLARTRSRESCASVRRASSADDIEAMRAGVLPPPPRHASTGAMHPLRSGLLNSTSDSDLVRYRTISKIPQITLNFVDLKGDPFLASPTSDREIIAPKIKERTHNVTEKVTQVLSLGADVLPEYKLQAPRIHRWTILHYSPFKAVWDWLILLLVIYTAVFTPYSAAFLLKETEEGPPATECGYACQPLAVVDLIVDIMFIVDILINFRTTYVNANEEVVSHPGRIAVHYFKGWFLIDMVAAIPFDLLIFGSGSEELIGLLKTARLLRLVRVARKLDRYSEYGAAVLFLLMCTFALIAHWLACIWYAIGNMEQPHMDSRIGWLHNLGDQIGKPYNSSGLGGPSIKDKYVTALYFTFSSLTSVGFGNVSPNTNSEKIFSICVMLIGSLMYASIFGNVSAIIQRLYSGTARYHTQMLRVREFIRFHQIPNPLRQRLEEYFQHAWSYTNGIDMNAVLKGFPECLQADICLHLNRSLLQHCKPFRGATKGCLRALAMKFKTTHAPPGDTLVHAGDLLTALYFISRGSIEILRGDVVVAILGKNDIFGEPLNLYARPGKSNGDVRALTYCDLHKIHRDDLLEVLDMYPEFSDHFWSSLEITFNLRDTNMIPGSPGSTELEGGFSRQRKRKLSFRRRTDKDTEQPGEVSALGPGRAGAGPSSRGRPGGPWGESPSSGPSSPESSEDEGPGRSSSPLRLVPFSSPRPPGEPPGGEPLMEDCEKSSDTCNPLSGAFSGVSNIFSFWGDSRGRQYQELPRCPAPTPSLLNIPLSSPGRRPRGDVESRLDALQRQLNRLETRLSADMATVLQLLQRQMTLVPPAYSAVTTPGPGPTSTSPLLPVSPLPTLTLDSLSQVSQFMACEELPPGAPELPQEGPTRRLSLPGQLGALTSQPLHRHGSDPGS

This assay addresses human ether-à-go-go-related gene (hERG) potassium channel (human, UniProt Q12809). In words: primary screen, population patch clamp on CHO cells stably expressing hERG.
Turning to `Cc1cc(NC(=O)C2CCCCC2C(=O)O)no1` (centres unmarked), the “hERG current change (%, negative = inhibition) at 10uM” value was found to be 4.57%.
In the case of `CC(C)CNC(=O)COC(=O)c1c2c(nc3ccccc13)/C(=C/c1cccs1)CC2`, the “hERG current change (%, negative = inhibition) at 10uM” value is 6.36%.
The same measure for `Cc1ccc(NC(=O)CN2C(=O)N/C(=C/c3ccc(C)s3)C2=O)cc1`: -5.54%; for `CC(C)C[C@@H](CN(N=O)[C@@H](Cc1ccccc1)CN(C)N=O)N(CCc1ccccc1)N=O.[Na+]`: -11.2%; for `CCC(C)NCc1ccc(C(=O)OC)o1.Cl` (centres unmarked): 22%.
As for `N#Cc1ccc(NC(=O)CSc2n[nH]c(=O)n2C2CC2)cc1`, the “hERG current change (%, negative = inhibition) at 10uM” value is on record as -1.4%.
The same measure for `CCN(CC1CCCN(CCc2cccc(F)c2)C1)C(=O)c1ccc(CSC)o1` (centres unmarked): -74.5%; for `Cc1ccc2cccc(NC(=S)NC(=O)c3ccn(C)n3)c2n1`: 6.66%.
Regarding `O=C(C[n+]1ccc2ccccc2c1)c1ccc(NC(=O)c2ccccc2)cc1.[Br-]`, the “hERG current change (%, negative = inhibition) at 10uM” value was -0.135%.
For the compound `N/C(=N\OC(=O)c1ccc2c(c1)OCO2)c1ccc(Br)cc1`, the “hERG current change (%, negative = inhibition) at 10uM” value is reported as 12.3%.
For `CNc1ccccc1C(=O)OCC(=O)N(CCOC)c1c(N)n(CC(C)C)c(=O)[nH]c1=O`, the “hERG current change (%, negative = inhibition) at 10uM” value is reported as 9.81%.
As to `O=C1CCCN1C(=O)COc1ccc([N+](=O)[O-])cc1`, the “hERG current change (%, negative = inhibition) at 10uM” value is -12.9%.
The result for `CCCC(C)NC(=O)c1ccc2[nH]c3c(c2c1)CC(C)CC3` (centres unmarked) reads 8.9%; that for `COC(=O)c1ccccc1NC(=O)COC(=O)C1CCCCC1`, 5.26%.
As to `O=C(O)CSCC(=O)NC1CCCc2ccccc21` (centres unmarked), the “hERG current change (%, negative = inhibition) at 10uM” value came out at 25.5%.
As to `COc1ccc(C2CC(c3cccs3)=NN2c2ccc(F)cc2)cc1OC` (centres unmarked), the “hERG current change (%, negative = inhibition) at 10uM” value was found to be 26.6%.
Regarding `CCOC(=O)c1ccc(N=C2SC(C(=O)Nc3ccc(C(=O)O)cc3)CC(=O)N2Cc2cccs2)cc1` (centres unmarked), the “hERG current change (%, negative = inhibition) at 10uM” value is recorded as -1.48%.
The same measure for `Cn1c(SCc2cccc(F)c2)nnc1-c1ccncc1`: 12.3%; for `Cc1cc(NC(=O)CN2CCCCC2C)no1.O=C(O)C(=O)O` (centres unmarked): -4.13%; for `CCOC(=O)C1CCCN(S(=O)(=O)c2cc3[nH]c(=O)c(=O)[nH]c3cc2C)C1` (centres unmarked): 8.67%.
The same measure for `O=c1[nH]c(-c2ccccc2)nn1-c1ccc(Br)cc1Br`: 11.5%; for `Cc1ccc(Cl)cc1S(=O)(=O)N1CCC(C(=O)NC2CCN(Cc3ccccc3)CC2)CC1`: -71.5%; for `O=C(CCNS(=O)(=O)c1cccc2nonc12)NC1CCCc2ccccc21` (centres unmarked): 3.83%.
The same measure for `CCOc1ccc2nc(SCc3ccccc3C#N)sc2c1`: 7.77%; for `COCC(=O)N(Cc1cc2cc(OC)ccc2[nH]c1=O)c1ccc(C)cc1`: -11.9%; for `CSc1nc2ccc(NS(=O)(=O)c3cccc(Cl)c3Cl)cc2s1`: -6.36%.
Take `O=C(c1ccc(N2CCCCC2)c([N+](=O)[O-])c1)N1CCOCC1`: the “hERG current change (%, negative = inhibition) at 10uM” value is reported as -22.6%.
Regarding `Cc1nn(CCC(=O)NNC(=S)Nc2ccc(F)cc2)c(C)c1[N+](=O)[O-]`, the “hERG current change (%, negative = inhibition) at 10uM” value is on record as 2.08%.
The result for `Cc1c(NC(=O)C(C)N(c2ccccc2)S(C)(=O)=O)c(=O)n(-c2ccccc2)n1C` (centres unmarked) reads 18.7%; that for `CC1CCN(c2nc3c(c(=O)[nH]c(=O)n3C)n2Cc2ccccc2)CC1`, 7.99%.
The same measure for `CCCC(=O)Nc1c(C)n[nH]c1C`: 5.36%; for `N#Cc1cnc(SCC(=O)N2CCCC2)nc1N`: 13.1%; for `CCOC(=O)C1C(O)=CC(=O)CC1c1ccccc1` (centres unmarked): 16.9%.
The result for `Cc1ccc(NC(=O)C(=O)NCCCN2CCCC2=O)c(C)c1` reads 5.82%; that for `O=C(Nc1ccncc1)c1cccc(S(=O)(=O)N2CCCC2)c1`, -60.7%; that for `Cl.O=C(O)CCc1nc2cc3ccccc3cc2[nH]1`, 23%.
Consider `COCCN(CCOC)S(=O)(=O)c1ccc(Cl)nc1`, for which the “hERG current change (%, negative = inhibition) at 10uM” value was -9.7%.
The same measure for `Cc1ccc(C(=O)NC2CCS(=O)(=O)C2)cc1S(=O)(=O)N1CCCCC1` (centres unmarked): 1.42%; for `COC(=O)C1=C(c2cc3ccccc3s2)C[C@@H]2CC[C@H]1N2C(=O)N1CCC(O)CC1`: -7.57%.
In the case of `O=C1c2cccnc2C(Nc2ccc(S(=O)(=O)N3CCCCC3)cc2)N1Cc1ccccc1` (centres unmarked), the “hERG current change (%, negative = inhibition) at 10uM” value is 12.1%.
The result for `Cn1c(C(=O)NCCCN2CCCCCC2)cc2c(=O)n(C)c3ccccc3c21` reads -16.6%.
Turning to `O=C(CCCCCn1c(=O)[nH]c2ccsc2c1=O)N1CCN(C2CCCCC2)CC1`, the “hERG current change (%, negative = inhibition) at 10uM” value was -40.2%.
The same measure for `Cc1c(OCC(=O)N2CCC(C(=O)O)CC2)ccc2c3c(c(=O)oc12)CCCC3`: 1.32%.
Consider `S=C(Nc1ccccc1)Nc1cc(Cl)ccc1Oc1ccccc1`, for which the “hERG current change (%, negative = inhibition) at 10uM” value came to 0.316%.
